# Experimental data reported in the supplement of paper PMC10369915.
# The list shows a part of the results. Cut-off read from the data, not from the text of the source: active = 3.2 or more and inactive = the rest. Most of these values are background signal.
# Biological target: SHP2 C-SH2 domain E139D
# Assay: enrichment score (SH2-bound / input frequency) (ratio); bacterial display of known human phosphotyrosine sites (pTyr-Var adds point mutants) read by sequencing; higher = stronger binding; tyrosines were phosphorylated by kinases first
# Settings: peptide library: pTyr-Var
# 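Note: displayed peptides selected on beads carrying the immobilized SH2 domain, with library peptides lacking any tyrosine serving as negative controls.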
row,Binder,enrichment score
1,SIDLGYHKDLQ [NF1_Y1169_G1166D],inactive: 0.649
2,FSPGSYERETF [NF1_Y2192],inactive: 0.735
3,KGSEGYLAATY [NF1_Y2503],inactive: 0.808
4,KGSEGYLAAIY [NF1_Y2503_T2507I],inactive: 0.709
5,YLAAIYPTVGQ [NF1_Y2508_T2507I],inactive: 0.898
6,YLAATYPTLGQ [NF1_Y2508_V2511L],inactive: 0.743
7,FLAATYPTLGQ [NF1_Y2508_V2511L_YF],inactive: 1.19
8,FLAATYPTVGQ [NF1_Y2508_YF],inactive: 1.11
9,TRSCKYLLLSM [NF1_Y491_Y489C],inactive: 1.4
10,TRSFKYLLLSM [NF1_Y491_YF],active: 3.36
11,ARKCKYFKKHE [NFIX_Y40_R38C],inactive: 0.533
12,EVTLTYATGTK [NFKB1_Y485],inactive: 0.766
13,MRNDLYQTPLH [NFKB1_Y582],inactive: 1.02
14,MKNDLYQTPLH [NFKB1_Y582_R578K],inactive: 1.12
15,GGDVIYKGFED [NFU1_Y194],inactive: 0.679
16,RGDVIYKGFED [NFU1_Y194_G189R],inactive: 0.797
17,TSESSYYKSLN [NGEF_Y288_A286S],inactive: 0.451
18,SEASYYKSLNL [NGEF_Y289],inactive: 0.789
19,RSDSTYRMSAT [NHS_Y1532_S1531T],inactive: 0.658

# Biological target: SHP2 C-SH2 domain wild-type
# Assay: as above
# Settings: peptide library: pTyr-Var
row,Binder,enrichment score
1,SIDLGYHKDLQ [NF1_Y1169_G1166D],inactive: 0.667
2,FSPGSYERETF [NF1_Y2192],inactive: 0.8
3,KGSEGYLAATY [NF1_Y2503],inactive: 0.736
4,KGSEGYLAAIY [NF1_Y2503_T2507I],inactive: 0.536
5,YLAAIYPTVGQ [NF1_Y2508_T2507I],inactive: 1.21
6,YLAATYPTLGQ [NF1_Y2508_V2511L],inactive: 0.773
7,FLAATYPTLGQ [NF1_Y2508_V2511L_YF],inactive: 0.769
8,FLAATYPTVGQ [NF1_Y2508_YF],inactive: 1.09
9,TRSCKYLLLSM [NF1_Y491_Y489C],inactive: 1.48
10,TRSFKYLLLSM [NF1_Y491_YF],inactive: 3.06
11,ARKCKYFKKHE [NFIX_Y40_R38C],inactive: 0.409
12,EVTLTYATGTK [NFKB1_Y485],inactive: 0.969
13,MRNDLYQTPLH [NFKB1_Y582],inactive: 0.984
14,MKNDLYQTPLH [NFKB1_Y582_R578K],inactive: 0.804
15,GGDVIYKGFED [NFU1_Y194],inactive: 0.624
16,RGDVIYKGFED [NFU1_Y194_G189R],inactive: 0.618
17,TSESSYYKSLN [NGEF_Y288_A286S],inactive: 0.373
18,SEASYYKSLNL [NGEF_Y289],inactive: 0.854
19,RSDSTYRMSAT [NHS_Y1532_S1531T],inactive: 0.592

# Biological target: SHP2 N-SH2 domain L43F
# Assay: as above
# Settings: peptide library: pTyr-Var
row,Binder,enrichment score
1,SIDLGYHKDLQ [NF1_Y1169_G1166D],inactive: 0.804
2,FSPGSYERETF [NF1_Y2192],inactive: 0.791
3,KGSEGYLAATY [NF1_Y2503],inactive: 0.723
4,KGSEGYLAAIY [NF1_Y2503_T2507I],inactive: 0.7
5,YLAAIYPTVGQ [NF1_Y2508_T2507I],inactive: 0.995
6,YLAATYPTLGQ [NF1_Y2508_V2511L],inactive: 0.773
7,FLAATYPTLGQ [NF1_Y2508_V2511L_YF],inactive: 0.881
8,FLAATYPTVGQ [NF1_Y2508_YF],inactive: 1.01
9,TRSCKYLLLSM [NF1_Y491_Y489C],inactive: 1.56
10,TRSFKYLLLSM [NF1_Y491_YF],inactive: 3.03
11,ARKCKYFKKHE [NFIX_Y40_R38C],inactive: 0.481
12,EVTLTYATGTK [NFKB1_Y485],inactive: 0.845
13,MRNDLYQTPLH [NFKB1_Y582],inactive: 0.824
14,MKNDLYQTPLH [NFKB1_Y582_R578K],inactive: 1.17
15,GGDVIYKGFED [NFU1_Y194],inactive: 0.728
16,RGDVIYKGFED [NFU1_Y194_G189R],inactive: 0.744
17,TSESSYYKSLN [NGEF_Y288_A286S],inactive: 0.483
18,SEASYYKSLNL [NGEF_Y289],inactive: 0.711
19,RSDSTYRMSAT [NHS_Y1532_S1531T],inactive: 0.581

# Biological target: SHP2 N-SH2 domain T42A
# Assay: as above
# Settings: peptide library: pTyr-Var
row,Binder,enrichment score
1,SIDLGYHKDLQ [NF1_Y1169_G1166D],inactive: 0.613
2,FSPGSYERETF [NF1_Y2192],inactive: 0.551
3,KGSEGYLAATY [NF1_Y2503],inactive: 0.565
4,KGSEGYLAAIY [NF1_Y2503_T2507I],inactive: 0.627
5,YLAAIYPTVGQ [NF1_Y2508_T2507I],inactive: 0.908
6,YLAATYPTLGQ [NF1_Y2508_V2511L],inactive: 0.67
7,FLAATYPTLGQ [NF1_Y2508_V2511L_YF],inactive: 1.05
8,FLAATYPTVGQ [NF1_Y2508_YF],inactive: 0.883
9,TRSCKYLLLSM [NF1_Y491_Y489C],inactive: 2.12
10,TRSFKYLLLSM [NF1_Y491_YF],active: 3.41
11,ARKCKYFKKHE [NFIX_Y40_R38C],inactive: 0.415
12,EVTLTYATGTK [NFKB1_Y485],inactive: 0.776
13,MRNDLYQTPLH [NFKB1_Y582],inactive: 0.857
14,MKNDLYQTPLH [NFKB1_Y582_R578K],inactive: 0.967
15,GGDVIYKGFED [NFU1_Y194],inactive: 0.546
16,RGDVIYKGFED [NFU1_Y194_G189R],inactive: 0.626
17,TSESSYYKSLN [NGEF_Y288_A286S],inactive: 0.308
18,SEASYYKSLNL [NGEF_Y289],inactive: 0.763
19,RSDSTYRMSAT [NHS_Y1532_S1531T],inactive: 0.651

# Biological target: SHP2 N-SH2 domain T52S
# Assay: as above
# Settings: peptide library: pTyr-Var
row,Binder,enrichment score
1,SIDLGYHKDLQ [NF1_Y1169_G1166D],inactive: 0.79
2,FSPGSYERETF [NF1_Y2192],inactive: 0.66
3,KGSEGYLAATY [NF1_Y2503],inactive: 0.648
4,KGSEGYLAAIY [NF1_Y2503_T2507I],inactive: 0.724
5,YLAAIYPTVGQ [NF1_Y2508_T2507I],inactive: 1.14
6,YLAATYPTLGQ [NF1_Y2508_V2511L],inactive: 0.769
7,FLAATYPTLGQ [NF1_Y2508_V2511L_YF],inactive: 1.11
8,FLAATYPTVGQ [NF1_Y2508_YF],inactive: 0.996
9,TRSCKYLLLSM [NF1_Y491_Y489C],inactive: 1.56
10,TRSFKYLLLSM [NF1_Y491_YF],inactive: 3.19
11,ARKCKYFKKHE [NFIX_Y40_R38C],inactive: 0.544
12,EVTLTYATGTK [NFKB1_Y485],inactive: 0.857
13,MRNDLYQTPLH [NFKB1_Y582],inactive: 0.69
14,MKNDLYQTPLH [NFKB1_Y582_R578K],inactive: 1
15,GGDVIYKGFED [NFU1_Y194],inactive: 0.712
16,RGDVIYKGFED [NFU1_Y194_G189R],inactive: 0.588
17,TSESSYYKSLN [NGEF_Y288_A286S],inactive: 0.442
18,SEASYYKSLNL [NGEF_Y289],inactive: 0.737
19,RSDSTYRMSAT [NHS_Y1532_S1531T],inactive: 0.642

# Biological target: SHP2 N-SH2 domain wild-type
# Assay: as above
# Settings: peptide library: pTyr-Var
row,Binder,enrichment score
1,SIDLGYHKDLQ [NF1_Y1169_G1166D],inactive: 0.592
2,FSPGSYERETF [NF1_Y2192],inactive: 0.732
3,KGSEGYLAATY [NF1_Y2503],inactive: 0.906
4,KGSEGYLAAIY [NF1_Y2503_T2507I],inactive: 0.656
5,YLAAIYPTVGQ [NF1_Y2508_T2507I],inactive: 0.901
6,YLAATYPTLGQ [NF1_Y2508_V2511L],inactive: 0.685
7,FLAATYPTLGQ [NF1_Y2508_V2511L_YF],inactive: 1.59
8,FLAATYPTVGQ [NF1_Y2508_YF],inactive: 0.835
9,TRSCKYLLLSM [NF1_Y491_Y489C],inactive: 1.47
10,TRSFKYLLLSM [NF1_Y491_YF],inactive: 3.09
11,ARKCKYFKKHE [NFIX_Y40_R38C],inactive: 0.432
12,EVTLTYATGTK [NFKB1_Y485],inactive: 0.952
13,MRNDLYQTPLH [NFKB1_Y582],inactive: 1.26
14,MKNDLYQTPLH [NFKB1_Y582_R578K],inactive: 1.51
15,GGDVIYKGFED [NFU1_Y194],inactive: 0.918
16,RGDVIYKGFED [NFU1_Y194_G189R],inactive: 0.488
17,TSESSYYKSLN [NGEF_Y288_A286S],inactive: 0.503
18,SEASYYKSLNL [NGEF_Y289],inactive: 0.795
19,RSDSTYRMSAT [NHS_Y1532_S1531T],inactive: 0.392
